The supplement of paper PMC7125110
± gives the standard error. Variants at the floor of the assay are shown more often than the library holds them.

B1: glmS ribozyme (parent)
chain: AUAAAAGCGCCAGAACUACAGAAAUGUAGUUGACGAGGAGGAGGUUUAUCGAAUUUUCGGCGGAUGCCUCCAAA

Key:
Conditions in all cases: with glucosamine-6-phosphate
glucosamine-6-phosphate [1] = variants of: B1; test: self-cleavage kobs at 40 uM GlcN6P; higher = faster cleavage; RNA array
In short: (§1)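 Barcoded ribozyme variants, transcribed in situ by E. coli RNA polymerase on sequenced MiSeq chips, were followed via a hybridised Cy3 probe at 37 °C. Glucosamine-6-phosphate ranged from 40 μM to 10 mM in HEPES/KCl/Mg(OAc)2 buffer. kobs came from decay fits to per-tile medians, and kcat and KM from weighted Michaelis–Menten fits.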

glucosamine-6-phosphate [2] = variants of: B1; test: self-cleavage kobs at 10000 uM GlcN6P; higher = faster cleavage; RNA array
In short: as §1

glucosamine-6-phosphate [3] = variants of: B1; test: self-cleavage kobs at 160 uM GlcN6P; higher = faster cleavage; RNA array
In short: as §1

glucosamine-6-phosphate [4] = variants of: B1; test: self-cleavage kobs at 640 uM GlcN6P; higher = faster cleavage; RNA array
In short: as §1

glucosamine-6-phosphate [5] = variants of: B1; test: self-cleavage kobs at 2500 uM GlcN6P; higher = faster cleavage; RNA array
In short: as §1

Variant | self-cleavage kobs at 40 uM GlcN6P (glucosamine-6-phosphate [1]) [s⁻¹] | self-cleavage kobs at 10000 uM GlcN6P (glucosamine-6-phosphate [2]) [s⁻¹] | self-cleavage kobs at 160 uM GlcN6P (glucosamine-6-phosphate [3]) [s⁻¹] | self-cleavage kobs at 640 uM GlcN6P (glucosamine-6-phosphate [4]) [s⁻¹] | self-cleavage kobs at 2500 uM GlcN6P (glucosamine-6-phosphate [5]) [s⁻¹]
G29A G35U C50U | < 1e-05 | < 1e-05 | – | – | –
G29A G40U U47A U57G C70A | < 1e-05 | < 1e-05 | – | – | –
G29A G41C | < 1e-05 | – | – | – | –
G29A G43A A52G | < 1e-05 | – | – | – | –
G29A G44U | < 1e-05 | – | < 1e-05 | – | –
G29A G51C G60A | < 1e-05 | – | < 1e-05 | – | –
G29A G59A | < 1e-05 | – | – | < 1e-05 | –
G29A G59U C71G | < 1e-05 | – | – | – | –
G29A G59U G63A A64U | < 1e-05 | < 1e-05 | – | – | –
G29A G63U | < 1e-05 | < 1e-05 | < 1e-05 | – | –
G29A U31C G35U G66A | < 1e-05 | – | – | – | –
G29A U45A | 0.000219 ± 4.2e-05 | 0.00857 ± 0.0012 | 0.000411 ± 0.00014 | 0.00159 ± 0.00032 | 0.00447 ± 0.0012
G29A U45G G60C | < 1e-05 | < 1e-05 | – | – | < 1e-05
G29A U56A G63C | < 1e-05 | – | – | – | –
G29C A33G A53U | < 1e-05 | < 1e-05 | – | – | –
G29C A33U G51A | < 1e-05 | – | – | – | –

Variant | self-cleavage kobs at 40 uM GlcN6P (glucosamine-6-phosphate [1]) [s⁻¹] | self-cleavage kobs at 10000 uM GlcN6P (glucosamine-6-phosphate [2]) [s⁻¹] | self-cleavage kobs at 160 uM GlcN6P (glucosamine-6-phosphate [3]) [s⁻¹] | self-cleavage kobs at 640 uM GlcN6P (glucosamine-6-phosphate [4]) [s⁻¹] | self-cleavage kobs at 2500 uM GlcN6P (glucosamine-6-phosphate [5]) [s⁻¹]
G29C A33U U46C A52G C58G | < 1e-05 | – | – | < 1e-05 | –
G29C A48C | < 1e-05 | – | < 1e-05 | – | –
G29C A48U | < 1e-05 | – | – | – | –
G29C C50A | < 1e-05 | – | – | – | –
G29C C50G C61A U65C | 7.48e-05 ± 2.1e-05 | – | – | – | –
G29C C58U C71U | < 1e-05 | 5.59e-05 ± 1.7e-05 | – | – | –
G29C G32C C68G C71U | < 1e-05 | < 1e-05 | – | – | –
G29C G35C | < 1e-05 | – | < 1e-05 | < 1e-05 | < 1e-05
G29C G35U | < 1e-05 | < 1e-05 | < 1e-05 | < 1e-05 | –
G29C G37A G38U | < 1e-05 | – | – | – | –
G29C G37U U47G G63A | < 1e-05 | < 1e-05 | – | – | –
G29C G38U A53G | < 1e-05 | < 1e-05 | < 1e-05 | – | –
G29C G41A | < 1e-05 | – | – | – | –
G29C G41U | < 1e-05 | – | – | – | –
G29C G43A U47A U54G C67G | < 1e-05 | < 1e-05 | – | – | –
